Assay results from publication PMC10668032.
The list shows a part of the results. At the low end of the ranking, values are background and their order means little.

Biological target: SIX1-Q177R homeodomain (UniProt Q15475)
Assay: universal protein binding microarray
Conditions: Universal all-10-mer PBM (8x60K, AMADID 030236), 300 nM GST-tagged protein, Alexa Fluor 488 anti-GST; buffer, salt, pH and temperature not stated; high values mean tight binding; most listed sequences are background and not binding sites; double strand, one strand shown

Row | Sequence | binding signal
1 | AAACGCGC | -0.12 E-score
2 | GCAGGGCC | -0.023 E-score
3 | CAGGTATA | -0.00418 E-score
4 | CCCAAGTC | 0.00494 E-score
5 | ATGGATCA | 0.0339 E-score
6 | ACAGGTCA | -0.0652 E-score
7 | GGACAACA | 0.107 E-score
8 | ATAGTGCG | 0.0395 E-score
9 | GAAGTTGC | -0.198 E-score
10 | ATGTTTAA | -0.19 E-score
11 | CTTAAAGC | -0.182 E-score
12 | GCAAATAC | -0.141 E-score
13 | GCCCGGAA | -0.0612 E-score
14 | GTGGCCAC | 0.123 E-score
15 | AACGAGGA | 0.0917 E-score
16 | CTGCTGTC | -0.262 E-score
17 | AACACATA | 0.17 E-score
18 | AGGGCTGA | 0.0339 E-score
19 | TGCAAGAA | -0.193 E-score
20 | TCACTGGA | -0.17 E-score
21 | GCCGCAAA | -0.108 E-score
22 | CACGTTCC | 0.0405 E-score
23 | AAACTGTA | -0.102 E-score
24 | ACGCGTAA | -0.0371 E-score
25 | ACTTTTGA | -0.0621 E-score

Row | Sequence | binding signal
26 | GCGTGTCA | 0.433 E-score
27 | CAACCTTC | -0.0276 E-score
28 | AGATTTGC | -0.158 E-score
29 | CAAAGAAA | -0.226 E-score
30 | GAACTTGA | -0.21 E-score
31 | GGGACGTA | 0.117 E-score
32 | AGTCTTTG | -0.178 E-score
33 | AAGGAGTC | 0.0261 E-score
34 | ACTAATAC | 0.08 E-score
35 | AGCCCGAT | -0.0892 E-score
36 | CCCGAGCA | 0.0851 E-score
37 | GACAAGAC | -0.0555 E-score
38 | ACAAACTA | 0.0712 E-score
39 | CATACACG | 0.385 E-score
40 | GACTAGTC | -0.0262 E-score
41 | TCAATTGA | -0.297 E-score
42 | GAACTTAC | 0.00609 E-score
43 | AAGGCCCA | -0.298 E-score
44 | GACCGGTC | -0.141 E-score
45 | CAACACTA | 0.34 E-score
46 | GCAGGAAA | -0.0967 E-score
47 | GCGTGAGA | -0.118 E-score
48 | AAGTACGG | -0.171 E-score
49 | AGAGCACC | 0.202 E-score
50 | GCGGTGAA | -0.221 E-score

Row | Sequence | binding signal
51 | CCTGTATA | -0.139 E-score
52 | CCAAAGGA | -0.0445 E-score
53 | GCCACCCA | -0.0074 E-score
54 | GTTATTGA | 0.0467 E-score
55 | ACATAATA | -0.0879 E-score
56 | AGTAATGA | 0.0447 E-score
57 | CAGCAACC | -0.0939 E-score
58 | AACTAGCG | -0.128 E-score
59 | AGGATCCA | 0.0758 E-score
60 | GCTTCCCA | -0.32 E-score
61 | ATGTGACC | -0.0737 E-score
62 | ACCATCCG | 0.141 E-score
63 | AAATTAAA | -0.214 E-score
64 | AAGAGGTA | 0.0511 E-score
65 | CGGCCCGC | -0.0779 E-score
66 | CTCGCTCA | -0.153 E-score
67 | ACTAGAAT | -0.0628 E-score
68 | ATCTGTAA | -0.165 E-score
69 | ATAGCGCA | -0.13 E-score
70 | TGCCGCCA | -0.168 E-score
71 | TAGCATGA | -0.107 E-score
72 | CAATTAAG | -0.062 E-score
73 | GATGTTTA | -0.107 E-score
74 | TCAAATCA | -0.0792 E-score
75 | ATGGACCA | 0.0656 E-score

Row | Sequence | binding signal
76 | AGGCGTTG | -0.0962 E-score
77 | ACGTATAC | -0.0509 E-score
78 | CATATACA | 0.144 E-score
79 | TGGTGTAA | 0.486 E-score
80 | GACAGAAA | -0.193 E-score
81 | AGTCAGTA | 0.00856 E-score
82 | CCAAATCC | -0.0948 E-score
83 | CGTCAGTA | -0.0889 E-score
84 | ATGACTGC | -0.3 E-score
85 | ACACAACT | 0.187 E-score
86 | AGGTAACT | -0.145 E-score
87 | ACATCGGA | -0.0158 E-score
88 | CTGTGAGA | -0.0128 E-score
89 | GCGCGCAC | 0.115 E-score
90 | ACCGGATG | 0.0831 E-score
91 | CAGTCAAG | -0.259 E-score
92 | AACACAAT | 0.15 E-score
93 | CCTGACAA | -0.136 E-score
94 | CTCTCATC | -0.13 E-score
95 | GGCCTTAA | -0.276 E-score
96 | GCGTACAA | 0.073 E-score
97 | CATGTTCC | -0.159 E-score
98 | CCGGACTA | 0.0815 E-score
99 | CTATAGAG | -0.142 E-score
100 | ATGACGAC | -0.0804 E-score

Row | Sequence | binding signal
101 | CACGAGCC | 0.0542 E-score
102 | CCTCCACG | -0.087 E-score
103 | CGACCCCA | 0.233 E-score
104 | GCGGATGA | -0.188 E-score
105 | AACGATTG | -0.24 E-score
106 | AACTATCC | -0.177 E-score
107 | AGGCCACA | -0.0931 E-score
108 | GAGTTTCC | -0.278 E-score
109 | GAACCATA | -0.0786 E-score
110 | ACTGGAAG | -0.00318 E-score
111 | GTCTAAGA | -0.0265 E-score
112 | GCGACCGA | -0.158 E-score
113 | CGGGTAGA | 0.0568 E-score
114 | CACTCTAA | 0.0759 E-score
115 | ACGGAGCT | -0.139 E-score
116 | CACACCAA | 0.38 E-score
117 | GATCCACA | 0.157 E-score
118 | GGACTCCC | 0.121 E-score
119 | GAAATCCC | -0.0848 E-score
120 | CTGACCCC | 0.283 E-score
121 | CACAAATC | 0.0318 E-score
122 | ATAAAAAA | -0.176 E-score
123 | CCTCTTTC | -0.122 E-score
124 | CCCCTACC | 0.237 E-score
125 | TAAGGCAA | -0.156 E-score

Row | Sequence | binding signal
126 | ACTCCCGC | 0.253 E-score
127 | ATTGGAAA | -0.235 E-score
128 | CTAGATCC | -0.0304 E-score
129 | ATCGATTC | -0.00258 E-score
130 | AAGGAAGA | -0.0719 E-score
131 | CTTGTTCC | -0.0869 E-score
132 | ATAGGAGG | -0.027 E-score
133 | CGTAAAGC | -0.185 E-score
134 | GACACGTA | 0.39 E-score
135 | CGTTGCTC | -0.0275 E-score
136 | GTGGATGA | -0.00284 E-score
137 | GGGATTCA | 0.128 E-score
138 | CCAACACA | 0.163 E-score
139 | ATGTTGAA | -0.105 E-score
140 | AGAAGAAT | -0.0734 E-score
141 | ACTAGCAG | -0.123 E-score
142 | GCTGTAAC | -0.0955 E-score
143 | AGTGTGAA | 0.276 E-score
144 | CCGTGGCA | 0.0338 E-score
145 | AGTGTGAC | 0.359 E-score
146 | CTTTCAGC | 0.00261 E-score
147 | CAGTGAAC | 0.0325 E-score
148 | AGTGACCC | 0.234 E-score
149 | CTTATGTA | -0.161 E-score
150 | GGGTTGCA | 0.121 E-score

Row | Sequence | binding signal
151 | AATCGCTG | -0.306 E-score
152 | TGCATCCA | -0.181 E-score
153 | AGCGTGTA | 0.419 E-score
154 | TAAGGATA | -0.0122 E-score
155 | AAATTTAA | -0.178 E-score
156 | AAGGGTTA | 0.0235 E-score
157 | GCTCGCGA | -0.141 E-score
158 | AGGTTGAG | 0.0636 E-score
159 | TACTTTCA | -0.111 E-score
160 | CTGCACGA | 0.0614 E-score
161 | GTTTTGTA | 0.0496 E-score
162 | AGCACGGC | 0.102 E-score
163 | GATTCAAA | -0.208 E-score
164 | CCTCTGCC | 0.00146 E-score
165 | AGCGGCTG | -0.238 E-score
166 | GGGGTTAA | 0.198 E-score
167 | TATAAAAA | -0.024 E-score
168 | AACTAGCA | 0.022 E-score
169 | AGTCTATG | -0.303 E-score
170 | GGCCGCCA | -0.247 E-score
171 | GGCCTGGA | -0.0463 E-score
172 | AAATGAGC | -0.331 E-score
173 | GCTTAGCC | -0.0946 E-score
174 | GCGAGCGC | -0.0369 E-score
175 | ATACCGAT | -0.0217 E-score

Row | Sequence | binding signal
176 | AGCGGGAT | 0.083 E-score
177 | AGAGGACT | -0.141 E-score
178 | CTGTCGGC | -0.134 E-score
179 | GAAAGCTC | 0.0463 E-score
180 | CGGGCTAC | 0.0741 E-score
181 | TCGTGGAA | -0.104 E-score
182 | AAAACATT | -0.319 E-score
183 | GCTAGTCC | -0.18 E-score
184 | CTTGCTGC | -0.113 E-score
185 | CTTAAGAA | -0.191 E-score
186 | AGAGATAT | -0.0602 E-score
187 | AAGGGGAT | 0.0724 E-score
188 | ACTGAACC | 0.0163 E-score
189 | CAAGTGCG | -0.00796 E-score
190 | ATATCCAG | -0.0292 E-score
191 | GGAAAACA | 0.0194 E-score
192 | AAGCTTTA | -0.106 E-score
193 | ATTCTGTC | -0.209 E-score
194 | CTGTTGCC | -0.215 E-score
195 | AATCTGTA | -0.0288 E-score
196 | TAAGCGGA | -0.112 E-score
197 | CCTCCCAA | -0.0632 E-score
198 | CGCTTACG | -0.146 E-score
199 | AGTAGGAA | -0.127 E-score
200 | TAACAGAA | -0.213 E-score

Row | Sequence | binding signal
201 | GCGGAACA | 0.149 E-score
202 | GCAGTACC | -0.0392 E-score
203 | CGTCGAAC | -0.151 E-score
204 | ATCGTCAT | -0.117 E-score
205 | CACGAGGA | 0.114 E-score
206 | TAATGGTA | 0.119 E-score
207 | GCACTAAC | -0.00999 E-score
208 | GAAGCTGA | -0.184 E-score
209 | AACTGTGT | 0.159 E-score
210 | AACGATCA | -0.133 E-score
211 | AATCGCCC | -0.201 E-score
212 | AGAGGGTA | 0.146 E-score
213 | AGGTCAGG | -0.00249 E-score
214 | CACAGTAG | -0.0728 E-score
215 | CGTCCGGA | -0.0376 E-score
216 | CTCGTGCC | -0.0971 E-score
217 | GGAAGTCA | -0.133 E-score
218 | AGAATCTA | -0.169 E-score
219 | CAAGGATA | 0.184 E-score
